Measured values: PubChem BioAssay AID1745853 (National Center for Advancing Translational Sciences (NCATS), 2022)
This is one part of the list. Further columns of the screen follow, without active or inactive calls.

What was measured:
Test in all cases: Primary Screen for Target Class Profiling of Small Molecule Inhibitors of Methyltransferases
[1] = molecular target: Glycine N-methyltransferase (Homo sapiens) (UniProt Q14749); conditions: purified enzyme, MTase-Glo SAH luminescence; measured here: GNMT inhibition; at 40 µM; stronger effect = lower value
In short: (§1)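 Each enzyme was reacted with SAM and its substrate, with compounds tested once at 40 uM; SAH formed was read by MTase-Glo luminescence.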

[2] = molecular target: Guanidinoacetate N-methyltransferase (Homo sapiens) (UniProt Q14353); conditions: purified enzyme, MTase-Glo SAH luminescence; measured here: GAMT inhibition; at 40 µM; stronger effect = lower value
In short: as §1

[3] = molecular target: Histamine N-methyltransferase (Homo sapiens) (UniProt P50135); conditions: purified enzyme, MTase-Glo SAH luminescence; measured here: HNMT inhibition; at 40 µM; stronger effect = lower value
In short: as §1

[4] = molecular target: Nicotinamide N-methyltransferase (Homo sapiens) (UniProt P40261); conditions: purified enzyme, MTase-Glo SAH luminescence; measured here: NNMT inhibition; at 40 µM; stronger effect = lower value
In short: as §1

[5] = molecular target: Phenylethanolamine N-methyltransferase (Homo sapiens) (UniProt P11086); conditions: purified enzyme, MTase-Glo SAH luminescence; measured here: PNMT inhibition; at 40 µM; stronger effect = lower value
In short: as §1
% is set by controls: 0 for no effect and ±100 for the full control effect.

Cc1cccc(NC(=O)Cn2c(=O)oc3cc(S(=O)(=O)N4CCCC4)ccc32)c1C
activity change, negative = inhibition [1]: -0.735% | activity change, negative = inhibition [2]: 2.24% | activity change, negative = inhibition [3]: -1.95% | activity change, negative = inhibition [4]: -0.86% | activity change, negative = inhibition [5]: -10%

CN1C(=O)C(CC(=O)N2CC(O)C2)(Cc2ccccc2)c2ccccc21 (stereo not given)
activity change, negative = inhibition [1]: -4.74% | activity change, negative = inhibition [2]: -0.301% | activity change, negative = inhibition [3]: -22.4% | activity change, negative = inhibition [4]: -5.15% | activity change, negative = inhibition [5]: 9.71%

CC(=O)N[C@H]1CCN(c2ccc(C3=NOC(CN[S+](=O)([O-])C(C)C)C3)cc2F)C1 (stereo not given in full)
activity change, negative = inhibition [1]: 0.437% | activity change, negative = inhibition [2]: 2.49% | activity change, negative = inhibition [3]: 5.12% | activity change, negative = inhibition [4]: -7.17% | activity change, negative = inhibition [5]: 1.07%

O=C(CCC1CCN(S(=O)(=O)c2ccccc2)CC1)NCc1ccco1
activity change, negative = inhibition [1]: 4.98% | activity change, negative = inhibition [2]: 3.05% | activity change, negative = inhibition [3]: 15.2% | activity change, negative = inhibition [4]: 6.24% | activity change, negative = inhibition [5]: 12%

COc1ccc(N2C(=O)c3ccc(-c4ccco4)n3CC2(C)C(=O)NC2CCCC2)cc1Cl (stereo not given)
activity change, negative = inhibition [1]: -16.2% | activity change, negative = inhibition [2]: -1.34% | activity change, negative = inhibition [3]: -4.54% | activity change, negative = inhibition [4]: -11.8% | activity change, negative = inhibition [5]: -10.1%

CN1CCN(CCN2C(=O)c3ccc(-c4ccco4)n3CC2(C)C(=O)NC2CCCCC2)CC1 (stereo not given)
activity change, negative = inhibition [1]: -0.678% | activity change, negative = inhibition [2]: 2.27% | activity change, negative = inhibition [3]: 0.926% | activity change, negative = inhibition [4]: 1.65% | activity change, negative = inhibition [5]: -0.048%

COc1cccc(CNC(=O)CCCn2ccc3cc(S(=O)(=O)N4CCCC4)ccc32)c1
activity change, negative = inhibition [1]: 8.89% | activity change, negative = inhibition [2]: 1.44% | activity change, negative = inhibition [3]: 8.84% | activity change, negative = inhibition [4]: 9.91% | activity change, negative = inhibition [5]: -0.637%

CCCCN1C(=O)c2cc(C(=O)Nc3cc(Cl)c(OC)cc3OC)nn2CC1(C)C(=O)NC1CCCC1 (stereo not given)
activity change, negative = inhibition [1]: -1.21% | activity change, negative = inhibition [2]: 3.09% | activity change, negative = inhibition [3]: 1.24% | activity change, negative = inhibition [4]: 0.682% | activity change, negative = inhibition [5]: -0.306%

CN(C)c1cc(N2CCCC(NC(=O)C3CCC3)C2)ncn1 (stereo not given)
activity change, negative = inhibition [1]: -2% | activity change, negative = inhibition [2]: -0.563% | activity change, negative = inhibition [3]: -0.024% | activity change, negative = inhibition [4]: -5.25% | activity change, negative = inhibition [5]: 2.18%

CCCn1c(=O)c2ccccc2n2c(=O)n(CC(=O)Nc3ccc(C)cc3Cl)nc12
activity change, negative = inhibition [1]: 2.94% | activity change, negative = inhibition [2]: 3.37% | activity change, negative = inhibition [3]: 5.54% | activity change, negative = inhibition [4]: -1.53% | activity change, negative = inhibition [5]: -0.473%

COCCN1C(=O)c2cccn2CC1CNS(=O)(=O)Cc1ccccc1 (stereo not given)
activity change, negative = inhibition [1]: -4.92% | activity change, negative = inhibition [2]: -4.08% | activity change, negative = inhibition [3]: -0.821% | activity change, negative = inhibition [4]: -7.67% | activity change, negative = inhibition [5]: 9.83%

Cc1cnc(Nc2ccc(CN3CCOCC3)cc2)nc1Nc1cccc(S(=O)(=O)NC(C)(C)C)c1
activity change, negative = inhibition [1]: -37.2% | activity change, negative = inhibition [2]: 2.5% | activity change, negative = inhibition [3]: -29.2% | activity change, negative = inhibition [4]: -56.3% | activity change, negative = inhibition [5]: -13.5%

CC1(C(=O)NC2CCCCCC2)Cn2c(cc3sccc32)C(=O)N1Cc1ccc2c(c1)OCO2 (stereo not given)
activity change, negative = inhibition [1]: 2.71% | activity change, negative = inhibition [2]: 4.07% | activity change, negative = inhibition [3]: 5.25% | activity change, negative = inhibition [4]: -1.54% | activity change, negative = inhibition [5]: -1.76%

CC(C)CC(=O)OC[C@H]1O[C@@](COC(=O)CC(C)C)(O[C@H]2O[C@H](CO)[C@@H](O)[C@H](O)[C@H]2OC(=O)CC(C)C)[C@@H](OC(=O)CC(C)C)[C@@H]1O
activity change, negative = inhibition [1]: -1.23% | activity change, negative = inhibition [2]: 7.95% | activity change, negative = inhibition [3]: 8.46% | activity change, negative = inhibition [4]: -4.51% | activity change, negative = inhibition [5]: 0.604%

CC1CCC(NC(=O)C2(C)Cn3c(ccc3-c3ccccc3)C(=O)N2Cc2ccc(Cl)cc2)CC1 (stereo not given)
activity change, negative = inhibition [1]: 1.36% | activity change, negative = inhibition [2]: 0.375% | activity change, negative = inhibition [3]: 0.785% | activity change, negative = inhibition [4]: -2.64% | activity change, negative = inhibition [5]: 1.78%

Cc1ncc2c(c1CNC(=O)Cc1ccsc1)CCN(C(=O)Cc1ccc(F)c(F)c1)C2
activity change, negative = inhibition [1]: -3.62% | activity change, negative = inhibition [2]: -4.56% | activity change, negative = inhibition [3]: -3.56% | activity change, negative = inhibition [4]: -1.74% | activity change, negative = inhibition [5]: -2.4%
